Out of some 390,000 compounds screened, about 1,400 (0.36%) were called active. Inconclusive means that the source gave no clear call. Such entries were picked first, then a sample of the others. Calls come from the whole dose curve; as a rule, active = well fitted inhibition curve with a large enough effect; inconclusive = small, poorly fitted or top-dose-only effect; inactive = no such curve, though single readings can be large or run the other way. A potency beside an inconclusive call is a rough fit, not a confirmed value.
These compounds were tested against Flap endonuclease 1 (Homo sapiens) (UniProt P39748) (assay: qHTS Assay for the Inhibitors of Human Flap endonuclease 1 (FEN1).). Details: Recombinant FEN1 flap cleavage, fluorescence, 15 min; series mostly up to 114 µM.
Chain of UniProt P39748 (P39748 whole entry, looked up): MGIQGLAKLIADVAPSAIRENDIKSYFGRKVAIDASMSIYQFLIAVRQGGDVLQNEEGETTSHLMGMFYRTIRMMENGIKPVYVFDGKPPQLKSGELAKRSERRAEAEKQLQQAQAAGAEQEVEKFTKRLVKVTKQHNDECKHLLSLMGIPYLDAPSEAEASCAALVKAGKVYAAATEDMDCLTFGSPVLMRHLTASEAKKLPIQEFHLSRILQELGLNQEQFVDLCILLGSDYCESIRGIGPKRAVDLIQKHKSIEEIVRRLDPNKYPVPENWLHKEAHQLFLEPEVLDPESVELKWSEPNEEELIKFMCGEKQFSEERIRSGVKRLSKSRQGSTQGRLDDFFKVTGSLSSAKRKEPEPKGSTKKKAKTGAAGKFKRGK
Procedure, shortened: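 Recombinant FEN1 (10 nM) was preincubated with pin-transferred compounds for 15 min at room temperature, then flap DNA substrate (50 nM final) was added. Plates were read at 0 and 15 min, and normalized concentration–response data were fitted to a four-parameter Hill equation.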
In the case of `CN(C)CCNC(=O)c1cc2c(=O)n(C)c3ccccc3c2n1C`, the Potency is reported as inconclusive: 39.8 µM [inhibitor, partial curve].
In the case of `CC(C)Cc1ccc(C(C)C(=O)OCC(=O)c2c[nH]c3ccccc23)cc1` (stereo not drawn), the Potency is reported as inconclusive: 44.7 µM [inhibitor, partial curve, poor fit].
`COc1ccccc1-c1cc(C(=O)N2CCN(c3ccccc3OC)CC2)no1` was tested, and the Potency was inconclusive: 89.1 µM [inhibitor, partial curve, poor fit].
`Cc1ccc(NC(=O)C2CC2)cc1S(=O)(=O)N1CCOCC1` was tested, and the Potency was inconclusive: 89.1 µM [inhibitor, single point].
`CC(OC(=O)c1ccccc1Nc1ccc(SC(F)F)cc1)C(N)=O` (stereo not drawn) was tested, and the Potency was inconclusive: 89.1 µM [inhibitor, partial curve, poor fit].
In the case of `CCNC(=O)COC(=O)c1cc(-c2ccco2)nc2ccccc12`, the Potency is reported as inconclusive: 28.2 µM [inhibitor, full curve].
In the case of `Nc1c(Br)cc(Br)c2cccnc12`, the Potency is reported as inconclusive: 15.8 µM [inhibitor, partial curve, poor fit].
`O=C1/C(=C/c2ccco2)SC(=S)N1c1cccnc1` was tested, and the Potency was active: 28.2 µM.
`CN(Cc1ccccc1)C(=O)c1cc(-c2ccc(Br)cc2)on1` was tested, and the Potency was inconclusive: 89.1 µM [inhibitor, partial curve, poor fit].
`Cc1cccc(OCC(O)CN2CCN(CCN3C(=O)c4cccc5cccc(c45)C3=O)CC2)c1C` (stereo not drawn) was tested, and the Potency was inconclusive: 17.8 µM [inhibitor, partial curve, poor fit].
With `CCC(=O)N1CCc2cc(Br)cc(S(=O)(=O)N3CCCC(C(=O)NCc4ccccc4)C3)c21` (stereo not drawn) the Potency was active: 79.4 µM.
`CC(C)=CCC/C(C)=C/CC/C(C)=C/COc1ccc2ccc(=O)oc2c1` was tested, and the Potency was inconclusive: 79.4 µM [inhibitor, partial curve, poor fit].
`CC(=O)Nc1ccc(OCCOc2ccc(/C=C3/C(=N)N4C=CSC4=NC3=O)cc2)cc1` was tested, and the Potency was “inactive”.
`S=c1[nH]c2cc(Cl)c3cccnc3c2o1` was tested, and the Potency was inconclusive: 50.1 µM [inhibitor, partial curve].
In the case of `Cc1cc(-c2csc(N)n2)c(C)n1Cc1ccco1`, the Potency is reported as inconclusive: 15.8 µM [inhibitor, full curve, poor fit].
`COc1ccc(/C=N/Nc2ncnc3scc(-c4ccccc4)c23)cc1OC` was tested, and the Potency was inconclusive: 89.1 µM [inhibitor, partial curve, poor fit].
`COc1ccc(Cc2nnc(SCC(=O)N3CCCC(C)C3)o2)cc1` (stereo not drawn) was tested, and the Potency was inconclusive: 89.1 µM [inhibitor, single point].
For `COc1cc(/C=N/n2nnnc2N)ccc1OCc1c(C)no[n+]1[O-]`, the Potency was “inactive”.
With `Cc1cccc2c(/C=C/c3ccc(N(C)C)cc3)ccnc12` the Potency was inconclusive: 22.4 µM [inhibitor, full curve].
In the case of `Nc1ccc2oc(-c3ccc4nc[nH]c4c3)nc2c1`, the Potency is reported as inconclusive: 56.2 µM [inhibitor, partial curve].
For `CC(C)=C[C@@H]1C[C@H](C)[C@H]2CC[C@H](C)c3c(O)c(O)c(C)c1c32`, the Potency was inconclusive: 44.7 µM [inhibitor, partial curve, poor fit].
For `COc1cccc(CNc2ccc(F)c(Cl)c2)c1OC`, the Potency was inconclusive: 89.1 µM [inhibitor, partial curve, poor fit].
In the case of `CC(C)CC(COCc1cccc(Cl)c1)N1CCN(C(=O)c2ccc(C(F)(F)F)cc2)CCC1=O` (stereo not drawn), the Potency is reported as inconclusive: 79.4 µM [inhibitor, partial curve, poor fit].
`O=C(N/N=C\C=C\c1ccc([N+](=O)[O-])o1)c1cccs1` was tested, and the Potency was “inactive”.
For `COc1ccc(-n2c(=O)c3sc4ccccc4c3n(CC(=O)Nc3ccccc3F)c2=O)cc1`, the Potency was “inactive”.
For `Cc1nn(C(=O)CCCC(=O)NCc2ccccc2)c2ccccc12`, the Potency was inconclusive: 44.7 µM [inhibitor, partial curve].
`COCCNC(=O)c1ccc(CSc2nc3ccncc3n2Cc2ccccc2)cc1` was tested, and the Potency was “inactive”.
`COc1cccc(CN2C(=O)c3ccccc3Sc3ccc(C(=O)N(C)Cc4ccccc4)cc32)c1` was tested, and the Potency was inconclusive: 89.1 µM [inhibitor, single point].
With `COc1cccc(CNC(=O)c2ccc3nc(-c4ccc(F)cc4)c(-c4ccc(F)cc4)nc3c2)c1` the Potency was “inactive”.
With `C[C@@H]1O[C@@H](O[C@H]2[C@H](O)[C@@H](O)[C@H](Oc3c(-c4ccc(O)c(O)c4)oc4cc(O)cc(O)c4c3=O)O[C@@H]2CO)[C@H](O)[C@H](O)[C@H]1O` the Potency was inconclusive: 44.7 µM [inhibitor, partial curve, poor fit].
With `Brc1ccc2[nH]c3c(NCc4ccccn4)ncnc3c2c1` the Potency was inconclusive: 50.1 µM [inhibitor, partial curve, poor fit].
`CCOC(=O)C1CCCN(CC(=O)N2CCCc3c2c(=O)oc2ccc(OCc4ccccc4)cc32)C1` (stereo not drawn) was tested, and the Potency was inconclusive: 89.1 µM [inhibitor, partial curve, poor fit].
For `COc1ccc(CNC(=O)C[C@H]2C[C@H](C(=O)N3CCCCC3)[C@@]3(C)c4[nH]c5cc(-c6ccco6)ccc5c4CCN3C2=O)cc1OC`, the Potency was inconclusive: 89.1 µM [inhibitor, single point].
In the case of `O=C(NC1CCCCC1)c1cnn2c1NC(=C1CC1)C=C2C(F)F`, the Potency is reported as “inactive”.
With `COc1ccc(-c2csc(Cc3nc(O)cs3)n2)cc1` the Potency was inconclusive: 50.1 µM [inhibitor, partial curve, poor fit].
For `COc1ccc(NC(=O)c2cc3c(COC(C)=O)cnc(C)c3oc2=Nc2cccc(C(=O)O)c2)c(OC)c1`, the Potency was inconclusive: 8.91 µM [inhibitor, partial curve, poor fit].
With `Cc1cccc(CNS(=O)(=O)c2ccc(-c3cnc(C4CC4)o3)cc2)c1` the Potency was inconclusive: 15.8 µM [inhibitor, partial curve, poor fit].
With `Cc1cccc(C2C3=C(Nc4[nH]n(-c5ccccc5)c(=O)c42)c2ccccc2C3=O)c1` (stereo not drawn) the Potency was inconclusive: 89.1 µM [inhibitor, single point].

From PubChem BioAssay AID588795 (National Center for Advancing Translational Sciences (NCATS), 2011)
Note: nearly all actives have a fitted effect of over 65% in size.
Potency is the fitted concentration of half-maximal effect; tags give direction and shape of the fitted curve.
